Patent publication US11178870B2 (priority 2017, dated 2021)

How the values were obtained:
Magnaporthe grisea = format: in vivo; details: class of control value, Table 7
Phytophthora infestans = format: in vivo; details: class of control value, Table 7
[1] = test system: Colletotrichum orbiculare; details: 250 ppm spray, 2.5 ml/pot; investigated 6 to 10 days after inoculation

| Compound | Test A control value (blast on rice) (Magnaporthe grisea) | Test F control value (late blight on tomato) (Phytophthora infestans) | Test H control value (anthracnose on cucumber) [1] |
| --- | --- | --- | --- |
| CNn1c(-c2c(F)cccc2F)c(-n2ncc(C)c2Cl)cc(Br)c1=O [Compound 475] | H (H shows the control value more than 50%) | L (L shows the control value of 50% or less) | H (H shows the control value more than 50%) |
| Cc1cnn(-c2cc(Br)c(=O)n(N)c2-c2ccc(F)cc2Cl)c1Cl [Compound 477] | H (H shows the control value more than 50%) | L (L shows the control value of 50% or less) | L (L shows the control value of 50% or less) |
| CNn1c(-c2ccc(F)cc2Cl)c(-n2ncc(C)c2Cl)cc(Br)c1=O [Compound 478] | H (H shows the control value more than 50%) | L (L shows the control value of 50% or less) | H (H shows the control value more than 50%) |
| Cc1cnn(-c2cc(Br)c(=O)n(N(C)C)c2-c2ccc(F)cc2Cl)c1Cl [Compound 479] | L (L shows the control value of 50% or less) | L (L shows the control value of 50% or less) | H (H shows the control value more than 50%) |
| Cc1sccc1-c1cc(Cl)c(=O)n(CC(F)F)c1-c1c(F)cccc1F [Compound 480] | L (L shows the control value of 50% or less) | L (L shows the control value of 50% or less) | L (L shows the control value of 50% or less) |
| Cn1c(-c2ccc(F)cc2Cl)c(-n2cc(F)cn2)ccc1=O [Compound 481] | L (L shows the control value of 50% or less) | L (L shows the control value of 50% or less) | L (L shows the control value of 50% or less) |
| Cn1c(-c2ccc(F)cc2Cl)c(-n2cc(F)cn2)cc(Cl)c1=O [Compound 482] | H (H shows the control value more than 50%) | L (L shows the control value of 50% or less) | H (H shows the control value more than 50%) |
| Cc1sccc1-c1cc(Cl)c(=O)n(C)c1-c1c(F)cccc1F [Compound 484] | H (H shows the control value more than 50%) | L (L shows the control value of 50% or less) | L (L shows the control value of 50% or less) |
| CCn1c(-c2ccc(Br)cc2F)c(-n2cc(C)cn2)ccc1=O [Compound 485] | L (L shows the control value of 50% or less) | L (L shows the control value of 50% or less) | L (L shows the control value of 50% or less) |
| Cc1cnn(-c2ccc(=O)n(C)c2-c2ccccc2F)c1 [Compound 487] | L (L shows the control value of 50% or less) | L (L shows the control value of 50% or less) | L (L shows the control value of 50% or less) |
| Cc1cnn(-c2cc(Cl)c(=O)n(C)c2-c2ccccc2F)c1Cl [Compound 488] | H (H shows the control value more than 50%) | L (L shows the control value of 50% or less) | H (H shows the control value more than 50%) |
| Cc1cnn(-c2cc(Br)c(=O)n(C)c2-c2ccccc2F)c1 [Compound 489] | L (L shows the control value of 50% or less) | L (L shows the control value of 50% or less) | L (L shows the control value of 50% or less) |
| Cc1cnn(-c2cc(Br)c(=O)n(C)c2-c2ccccc2F)c1Cl [Compound 490] | H (H shows the control value more than 50%) | L (L shows the control value of 50% or less) | H (H shows the control value more than 50%) |
| Cc1sc(Br)cc1-c1ccc(=O)n(C)c1-c1c(F)cccc1F [Compound 491] | L (L shows the control value of 50% or less) | L (L shows the control value of 50% or less) | L (L shows the control value of 50% or less) |
| Cc1sccc1-c1cc(Br)c(=O)n(C)c1-c1c(F)cccc1F [Compound 492] | L (L shows the control value of 50% or less) | L (L shows the control value of 50% or less) | L (L shows the control value of 50% or less) |
| O=c1ccc(-c2ccsc2)c(-c2c(F)cccc2F)n1CC(F)F [Compound 493] | H (H shows the control value more than 50%) | L (L shows the control value of 50% or less) | L (L shows the control value of 50% or less) |

| Compound | Test A control value (blast on rice) (Magnaporthe grisea) | Test F control value (late blight on tomato) (Phytophthora infestans) | Test H control value (anthracnose on cucumber) [1] |
| --- | --- | --- | --- |
| Cc1sc(Br)cc1-c1cc(Br)c(=O)n(CC(F)F)c1-c1c(F)cccc1F [Compound 494] | H (H shows the control value more than 50%) | L (L shows the control value of 50% or less) | H (H shows the control value more than 50%) |
| O=c1c(Br)cc(-c2cc(Br)sc2CBr)c(-c2c(F)cccc2F)n1CC(F)F [Compound 495] | H (H shows the control value more than 50%) | L (L shows the control value of 50% or less) | L (L shows the control value of 50% or less) |
| Cc1ccsc1-c1ccc(=O)n(C)c1-c1c(F)cccc1F [Compound 496] | H (H shows the control value more than 50%) | L (L shows the control value of 50% or less) | L (L shows the control value of 50% or less) |
| CCn1c(-c2ccc(OC)cc2Cl)c(-c2ccsc2Cl)ccc1=O [Compound 497] | H (H shows the control value more than 50%) | L (L shows the control value of 50% or less) | H (H shows the control value more than 50%) |
| Cc1ccsc1-c1cc(Cl)c(=O)n(C)c1-c1c(F)cccc1F [Compound 498] | H (H shows the control value more than 50%) | L (L shows the control value of 50% or less) | H (H shows the control value more than 50%) |
| CCn1c(-c2ccc(F)cc2F)c(-c2ccsc2Br)cc(Br)c1=O [Compound 499] | H (H shows the control value more than 50%) | L (L shows the control value of 50% or less) | H (H shows the control value more than 50%) |
| CCn1c(-c2ccc(F)cc2F)c(-c2ccsc2Br)ccc1=O [Compound 500] | H (H shows the control value more than 50%) | L (L shows the control value of 50% or less) | L (L shows the control value of 50% or less) |
| CCn1c(-c2ccc(OC)cc2Cl)c(-c2ccsc2Cl)cc(Cl)c1=O [Compound 502] | H (H shows the control value more than 50%) | L (L shows the control value of 50% or less) | H (H shows the control value more than 50%) |
| CCn1c(-c2ccc(F)cc2F)c(-c2ccsc2C)ccc1=O [Compound 503] | H (H shows the control value more than 50%) | L (L shows the control value of 50% or less) | H (H shows the control value more than 50%) |
| CCn1c(-c2ccc(OC)cc2Cl)c(-c2ccsc2Cl)cc(Br)c1=O [Compound 504] | H (H shows the control value more than 50%) | L (L shows the control value of 50% or less) | H (H shows the control value more than 50%) |
| CCn1c(-c2ccc(F)cc2F)c(-n2ncc(C)c2Cl)ccc1=O [Compound 506] | H (H shows the control value more than 50%) | L (L shows the control value of 50% or less) | H (H shows the control value more than 50%) |
| CCn1c(-c2ccc(C#N)cc2F)c(-n2cc(F)cn2)cc(Cl)c1=O [Compound 508] | L (L shows the control value of 50% or less) | L (L shows the control value of 50% or less) | H (H shows the control value more than 50%) |
| Cn1c(-c2c(F)cccc2Cl)c(-n2cc(F)cn2)cc(Cl)c1=O [Compound 509] | L (L shows the control value of 50% or less) | L (L shows the control value of 50% or less) | H (H shows the control value more than 50%) |
| Cc1cnn(-c2ccc(=O)n(C)c2-c2ccc(F)cc2C)c1 [Compound 511] | L (L shows the control value of 50% or less) | L (L shows the control value of 50% or less) | L (L shows the control value of 50% or less) |
| Cc1cc(F)ccc1-c1c(-n2ncc(C)c2Cl)cc(Cl)c(=O)n1C [Compound 512] | H (H shows the control value more than 50%) | L (L shows the control value of 50% or less) | H (H shows the control value more than 50%) |
| Cc1cnn(-c2cc(Br)c(=O)n(C)c2-c2ccc(F)cc2C)c1 [Compound 513] | L (L shows the control value of 50% or less) | L (L shows the control value of 50% or less) | L (L shows the control value of 50% or less) |
